Measurements published in the supplement of paper PMC12217912.
The other results are listed elsewhere or left out. The full chains were built here from the parent and the listed change. Inactive controls read about 0.05.

B1: TEV protease; numbered along this chain (parent)
chain: MGESLFKGPRDYNPISSSICHLTNESDGHTTSLYGIGFGPFIITNKHLFRRNNGTLVVQSLHGVFKVKDTTTLQQHLVDGRDMIIIRMPKDFPPFPQKLKFREPQREERICLVTTNFQTKSMSSMVSDTSCTFPSGDGIFWKHWIQTKDGQCGSPLVSTRDGFIVGIHSASNFTNTNNYFTSVPKNFMELLTNQEAQQWVSGWRLNADSVLWGGHKVFMVKPEEPFQPVKEATQL

Variants of: B1
Assay: raw area under fraction-flipped curve 0-4 h after induction (AUC4h, not background-subtracted), DNA-recorder readout of cleavage of the substrate (dimensionless); higher = more cleavage of the substrate by the protease variant
Conditions: temperature: 34 °C; time window: 0-4 h after rhamnose induction
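Also: Bxb1 expression induced with 0.2% (w/v) L-rhamnose at OD600 near 0.5, cultures sampled hourly, flipped fraction per protease–substrate barcode pair counted by paired-end Illumina sequencing.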

Row | Variant | area with substrate ENLDFQS | area with substrate ENLFFQS | area with substrate ENLHFQS | area with substrate ENLLFQS | area with substrate ENLMFQS | area with substrate ENLNFQS | area with substrate ENLSFQS | area with substrate ENLWFQS | area with substrate ENLEFQS | area with substrate ENLGFQS | area with substrate ENLIFQS | area with substrate ENLKFQS | area with substrate ENLPFQS | area with substrate ENLRFQS | area with substrate ENLQFQS | area with substrate ENLVFQS | area with substrate ENLTFQS
1 | MGESLFKGPRDYNPISSSICHLTNESDGHTTSLYGIGFGPFIITNKHLFRRNNGTLVVQSLHGVFVVKDTTTLQQHLVDGRDMIIIRMPKDFPPFPQKLKFREPQREERICLVTTNFQTKSMSSMVSDTSCTFPSGDGIFWKHWIQTKDGQCGSPLVSTRDGFIVGIHSASNFTNTNNYFTSVPKNFMELLTNQEAQQWVSGWRLNADSVLWGGHKVFMVKPEEPFQPVKEATQL [K66V] | 0.0882 | 0.0893 | 0.0732 | 0.0819 | 0.0782 | 0.0544 | 0.0655 | 0.0808 | – | – | – | – | – | – | – | – | –
2 | MGESLFKGPRDYNPISSSICHLTNESDGHTTSLYGIGFGPFIITNKHLFRRNNGTLVVQSLHGVFKMKDTTTLQQHLVDGRDMIIIRMPKDFPPFPQKLKFREPQREERICLVTTNFQTKSMSSMVSDTSCTFPSGDGIFWKHWIQTKDGQCGSPLVSTRDGFIVGIHSASNFTNTNNYFTSVPKNFMELLTNQEAQQWVSGWRLNADSVLWGGHKVFMVKPEEPFQPVKEATQL [V67M] | 0.0531 | 0.0686 | – | – | 0.0793 | 0.0695 | – | – | 0.0489 | 0.068 | 0.0791 | 0.068 | 0.0883 | 0.078 | – | – | –
3 | MGESLFKGPRDYNPISSSICHLTNESDGHTTSLYGIGFGPFIITNKHLFRRNNGTLVVQSLHGVFKVKDDTTLQQHLVDGRDMIIIRMPKDFPPFPQKLKFREPQREERICLVTTNFQTKSMSSMVSDTSCTFPSGDGIFWKHWIQTKDGQCGSPLVSTRDGFIVGIHSASNFTNTNNYFTSVPKNFMELLTNQEAQQWVSGWRLNADSVLWGGHKVFMVKPEEPFQPVKEATQL [T70D] | 0.0677 | 0.0655 | 0.0567 | 0.0588 | – | – | 0.0475 | 0.0565 | – | – | 0.0829 | 0.0618 | – | 0.0587 | – | – | –
4 | MGESLFKGPRDYNPISSSICHLTNESDGHTTSLYGIGFGPFIITNKHLFRRNNGTLVVQSLHGVFKVKDTTTLQQQLVDGRDMIIIRMPKDFPPFPQKLKFREPQREERICLVTTNFQTKSMSSMVSDTSCTFPSGDGIFWKHWIQTKDGQCGSPLVSTRDGFIVGIHSASNFTNTNNYFTSVPKNFMELLTNQEAQQWVSGWRLNADSVLWGGHKVFMVKPEEPFQPVKEATQL [H76Q] | 0.0499 | – | – | 0.0685 | – | 0.0692 | 0.0428 | 0.0645 | 0.0639 | – | – | 0.0758 | – | 0.0829 | 0.0842 | – | –
5 | MGESLFKGPRDYNPISSSICHLTNESDGHTTSLYGIGFGPFIITNKHLFRRNNGTLVVQSLHGVFKVKDTTTLQQHLVDGLDMIIIRMPKDFPPFPQKLKFREPQREERICLVTTNFQTKSMSSMVSDTSCTFPSGDGIFWKHWIQTKDGQCGSPLVSTRDGFIVGIHSASNFTNTNNYFTSVPKNFMELLTNQEAQQWVSGWRLNADSVLWGGHKVFMVKPEEPFQPVKEATQL [R81L] | 0.0486 | 0.0828 | 0.0707 | – | – | 0.0685 | – | 0.0298 | 0.0667 | 0.0703 | – | 0.0718 | – | 0.0638 | – | 0.0727 | –
6 | MGESLFKGPRDYNPISSSICHLTNESDGHTTSLYGIGFGPFIITNKHLFRRNNGTLVVQSLHGVFKVKDTTTLQQHLVDGRQMIIIRMPKDFPPFPQKLKFREPQREERICLVTTNFQTKSMSSMVSDTSCTFPSGDGIFWKHWIQTKDGQCGSPLVSTRDGFIVGIHSASNFTNTNNYFTSVPKNFMELLTNQEAQQWVSGWRLNADSVLWGGHKVFMVKPEEPFQPVKEATQL [D82Q] | 0.0525 | 0.0679 | – | – | – | 0.0469 | – | – | – | – | – | 0.0673 | 0.0506 | 0.071 | – | 0.0514 | –
7 | MGESLFKGPRDYNPISSSICHLTNESDGHTTSLYGIGFGPFIITNKHLFRRNNGTLVVQSLHGVFKVKDTTTLQQHLVDGRDIIIIRMPKDFPPFPQKLKFREPQREERICLVTTNFQTKSMSSMVSDTSCTFPSGDGIFWKHWIQTKDGQCGSPLVSTRDGFIVGIHSASNFTNTNNYFTSVPKNFMELLTNQEAQQWVSGWRLNADSVLWGGHKVFMVKPEEPFQPVKEATQL [M83I] | 0.0716 | 0.0751 | – | 0.0505 | – | 0.0683 | – | 0.0675 | – | – | 0.0854 | 0.0681 | 0.0629 | 0.0703 | – | – | –
8 | MGESLFKGPRDYNPISSSICHLTNESDGHTTSLYGIGFGPFIITNKHLFRRNNGTLVVQSLHGVFKVKDTTTLQQHLVDGRDMIIKRMPKDFPPFPQKLKFREPQREERICLVTTNFQTKSMSSMVSDTSCTFPSGDGIFWKHWIQTKDGQCGSPLVSTRDGFIVGIHSASNFTNTNNYFTSVPKNFMELLTNQEAQQWVSGWRLNADSVLWGGHKVFMVKPEEPFQPVKEATQL [I86K] | 0.0509 | 0.031 | 0.0363 | 0.032 | – | 0.0383 | 0.0452 | 0.0353 | 0.0392 | 0.0211 | 0.0405 | – | – | – | – | – | –
9 | MGESLFKGPRDYNPISSSICHLTNESDGHTTSLYGIGFGPFIITNKHLFRRNNGTLVVQSLHGVFKVKDTTTLQQHLVDGRDMIIIRMPKDAPPFPQKLKFREPQREERICLVTTNFQTKSMSSMVSDTSCTFPSGDGIFWKHWIQTKDGQCGSPLVSTRDGFIVGIHSASNFTNTNNYFTSVPKNFMELLTNQEAQQWVSGWRLNADSVLWGGHKVFMVKPEEPFQPVKEATQL [F92A] | 0.0574 | 0.0791 | – | – | – | 0.0574 | 0.0661 | – | 0.0701 | – | 0.0824 | 0.0696 | – | 0.0687 | – | – | –
10 | MGESLFKGPRDYNPISSSICHLTNESDGHTTSLYGIGFGPFIITNKHLFRRNNGTLVVQSLHGVFKVKDTTTLQQHLVDGRDMIIIRMPKDFPPWPQKLKFREPQREERICLVTTNFQTKSMSSMVSDTSCTFPSGDGIFWKHWIQTKDGQCGSPLVSTRDGFIVGIHSASNFTNTNNYFTSVPKNFMELLTNQEAQQWVSGWRLNADSVLWGGHKVFMVKPEEPFQPVKEATQL [F95W] | 0.0849 | 0.0999 | 0.0797 | 0.0785 | – | 0.0622 | – | – | 0.0569 | 0.0554 | – | 0.0737 | 0.0581 | – | 0.0617 | – | 0.0662
